This note sets out measurements from the GPR68 mutational scans of Howard et al. (2025).

The least precise scores are not listed. Not listed are two conditions whose scores span a narrow range. Names with del lack the residues named; names with ins carry added residues between the positions named. For some assays here: How much ogerin was present is not stated here.

B1: GPR68, Q15743 (parent)
chain: MGNITADNSSMSCTIDHTIHQTLAPVVYVTVLVVGFPANCLSLYFGYLQIKARNELGVYLCNLTVADLFYICSLPFWLQYVLQHDNWSHGDLSCQVCGILLYENIYISVGFLCCISVDRYLAVAHPFRFHQFRTLKAAVGVSVVIWAKELLTSIYFLMHEEVIEDENQHRVCFEHYPIQAWQRAINYYRFLVGFLFPICLLLASYQGILRAVRRSHGTQKSRKDQIQRLVLSTVVIFLACFLPYHVLLLVRSVWEASCDFAKGVFNAYHFSLLLTSFNCVADPVLYCFVSETTHRDLARLRGACLAFLTCSRTGRAREAYPLGAPEASGKSGAQGEEPELLTKLHPAFQTPNSPGSGGFPTGRLA

In series [1] the parent is B1. The series can be described thus: cAMP reporter score (Enrich2 score, wild type = 0); higher = more signal; HEK293T, FACS bins.
In series [2] the parent is B1. Nature of the series: surface expression score (Enrich2 score, wild type = 0); higher = more signal; HEK293T, FACS bins.

Take N8del: the cAMP reporter score in series [1] (pH 5.5) was -0.323; in series [1] (pH 6) it was -0.116; in series [1] (pH 6, modulator: ogerin), -0.595; in series [1] (pH 6.5, modulator: ogerin), -1. The surface expression score in series [2] was 0.126.

With MGNITADNSAMSCTIDHTIHQTLAPVVYVTVLVVGFPANCLSLYFGYLQIKARNELGVYLCNLTVADLFYICSLPFWLQYVLQHDNWSHGDLSCQVCGILLYENIYISVGFLCCISVDRYLAVAHPFRFHQFRTLKAAVGVSVVIWAKELLTSIYFLMHEEVIEDENQHRVCFEHYPIQAWQRAINYYRFLVGFLFPICLLLASYQGILRAVRRSHGTQKSRKDQIQRLVLSTVVIFLACFLPYHVLLLVRSVWEASCDFAKGVFNAYHFSLLLTSFNCVADPVLYCFVSETTHRDLARLRGACLAFLTCSRTGRAREAYPLGAPEASGKSGAQGEEPELLTKLHPAFQTPNSPGSGGFPTGRLA [S10A], the cAMP reporter score was 0.479 in series [1] (pH 5.5); -0.13 in series [1] (pH 6); 0.277 in series [1] (pH 6, modulator: ogerin); 0.561 in series [1] (pH 6.5, modulator: ogerin). Further, the surface expression score in series [2] came to 1.09.

Turning to MGNITADNSCMSCTIDHTIHQTLAPVVYVTVLVVGFPANCLSLYFGYLQIKARNELGVYLCNLTVADLFYICSLPFWLQYVLQHDNWSHGDLSCQVCGILLYENIYISVGFLCCISVDRYLAVAHPFRFHQFRTLKAAVGVSVVIWAKELLTSIYFLMHEEVIEDENQHRVCFEHYPIQAWQRAINYYRFLVGFLFPICLLLASYQGILRAVRRSHGTQKSRKDQIQRLVLSTVVIFLACFLPYHVLLLVRSVWEASCDFAKGVFNAYHFSLLLTSFNCVADPVLYCFVSETTHRDLARLRGACLAFLTCSRTGRAREAYPLGAPEASGKSGAQGEEPELLTKLHPAFQTPNSPGSGGFPTGRLA [S10C], the cAMP reporter score in series [1] (pH 5.5) was -0.713; in series [1] (pH 6), -1.76; in series [1] (pH 6, modulator: ogerin), -0.81; in series [1] (pH 6.5, modulator: ogerin), -0.906. Also, the surface expression score in series [2] was -0.97.

Turning to MGNITADNSDMSCTIDHTIHQTLAPVVYVTVLVVGFPANCLSLYFGYLQIKARNELGVYLCNLTVADLFYICSLPFWLQYVLQHDNWSHGDLSCQVCGILLYENIYISVGFLCCISVDRYLAVAHPFRFHQFRTLKAAVGVSVVIWAKELLTSIYFLMHEEVIEDENQHRVCFEHYPIQAWQRAINYYRFLVGFLFPICLLLASYQGILRAVRRSHGTQKSRKDQIQRLVLSTVVIFLACFLPYHVLLLVRSVWEASCDFAKGVFNAYHFSLLLTSFNCVADPVLYCFVSETTHRDLARLRGACLAFLTCSRTGRAREAYPLGAPEASGKSGAQGEEPELLTKLHPAFQTPNSPGSGGFPTGRLA [S10D], the cAMP reporter score was 0.005 in series [1] (pH 5.5); -0.042 in series [1] (pH 6, modulator: ogerin); 0.426 in series [1] (pH 6.5, modulator: ogerin). In series [2], the surface expression score is -0.089.

S9_S10insGSG: the cAMP reporter score was -0.093 in series [1] (pH 5.5); 0.02 in series [1] (pH 6); 0.178 in series [1] (pH 6, modulator: ogerin); 0.102 in series [1] (pH 6.5, modulator: ogerin). Further, the surface expression score in series [2] was -0.311.

With MGNITADYSSMSCTIDHTIHQTLAPVVYVTVLVVGFPANCLSLYFGYLQIKARNELGVYLCNLTVADLFYICSLPFWLQYVLQHDNWSHGDLSCQVCGILLYENIYISVGFLCCISVDRYLAVAHPFRFHQFRTLKAAVGVSVVIWAKELLTSIYFLMHEEVIEDENQHRVCFEHYPIQAWQRAINYYRFLVGFLFPICLLLASYQGILRAVRRSHGTQKSRKDQIQRLVLSTVVIFLACFLPYHVLLLVRSVWEASCDFAKGVFNAYHFSLLLTSFNCVADPVLYCFVSETTHRDLARLRGACLAFLTCSRTGRAREAYPLGAPEASGKSGAQGEEPELLTKLHPAFQTPNSPGSGGFPTGRLA [N8Y], the cAMP reporter score in series [1] (pH 5.5) was -0.362; in series [1] (pH 6) it was -0.457; in series [1] (pH 6, modulator: ogerin) it was -0.598; in series [1] (pH 6.5, modulator: ogerin) it was -0.442. The surface expression score in series [2] is -0.839.

With N8_S9del, the cAMP reporter score in series [1] (pH 5.5) is -0.71; in series [1] (pH 6), -0.062; in series [1] (pH 6, modulator: ogerin), -0.184; in series [1] (pH 6.5, modulator: ogerin), -0.847. For the same variant, in series [2], the surface expression score is -1.4.

Turning to S9_S10del, the cAMP reporter score in series [1] (pH 5.5) was -0.003; in series [1] (pH 6), 0.518; in series [1] (pH 6, modulator: ogerin), -0.092; in series [1] (pH 6.5, modulator: ogerin) it was 0.236. In addition, the surface expression score in series [2] was 0.112.

For S9_M11del, the cAMP reporter score in series [1] (pH 5.5) was 0.229; in series [1] (pH 6), -0.709; in series [1] (pH 6, modulator: ogerin) it was -0.138; in series [1] (pH 6.5, modulator: ogerin) it was -0.802. In addition, the surface expression score in series [2] worked out at 0.045.
